Whole data set: some 110,000 compounds, median “z-score” near -0.1, cut for the highest 2% near 2. This is one part of the list.
The compounds below were run against Metabotropic glutamate receptor 8 (Rattus norvegicus) (UniProt P70579) (assay: rat mGluR8 modulators via GIRK flux, primary screen, cell-based, thallium flux, HTS (AID 488969)). Details: HEK293 rat mGluR8, GIRK (G protein-gated inwardly rectifying potassium channel) thallium flux, FluoZin2; at 10 µM; stronger effect = higher value; submaximal glutamate (EC20) added with thallium.
Chain of UniProt P70579 (P70579 whole entry, looked up): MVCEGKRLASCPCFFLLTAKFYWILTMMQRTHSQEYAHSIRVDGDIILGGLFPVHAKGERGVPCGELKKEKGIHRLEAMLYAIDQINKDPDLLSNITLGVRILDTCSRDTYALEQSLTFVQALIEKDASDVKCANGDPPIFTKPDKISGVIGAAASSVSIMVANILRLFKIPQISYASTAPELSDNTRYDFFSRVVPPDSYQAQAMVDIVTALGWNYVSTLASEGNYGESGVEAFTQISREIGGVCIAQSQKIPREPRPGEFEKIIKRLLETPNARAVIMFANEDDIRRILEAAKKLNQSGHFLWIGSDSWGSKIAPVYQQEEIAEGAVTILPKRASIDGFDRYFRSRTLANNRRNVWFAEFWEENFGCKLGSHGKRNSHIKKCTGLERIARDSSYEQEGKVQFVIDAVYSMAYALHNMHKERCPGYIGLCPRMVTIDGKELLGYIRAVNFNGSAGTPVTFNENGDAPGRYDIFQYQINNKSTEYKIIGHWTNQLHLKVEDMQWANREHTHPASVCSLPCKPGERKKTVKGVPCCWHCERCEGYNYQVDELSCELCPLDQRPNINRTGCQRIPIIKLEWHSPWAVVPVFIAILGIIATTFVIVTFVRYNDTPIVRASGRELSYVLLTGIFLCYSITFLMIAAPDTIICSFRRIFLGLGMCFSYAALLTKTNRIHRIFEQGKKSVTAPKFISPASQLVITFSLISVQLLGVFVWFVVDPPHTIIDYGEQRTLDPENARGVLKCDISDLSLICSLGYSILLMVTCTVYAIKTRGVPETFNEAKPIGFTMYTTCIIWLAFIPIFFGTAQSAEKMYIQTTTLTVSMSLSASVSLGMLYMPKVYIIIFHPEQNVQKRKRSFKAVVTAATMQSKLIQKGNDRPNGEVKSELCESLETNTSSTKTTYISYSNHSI

`Cc1ccc(S(=O)(=O)NC(CC(=O)N2CCc3ccccc32)c2ccco2)cc1` (stereo not given) was tested. Which z-score did it give?
The z-score was -0.465.

Which z-score does the source give for `COc1ccc(-c2nnc3ccc(SC(C(C)=O)C(C)=O)nn23)cc1OC` here?
The z-score was -0.0547.

For `COC(=O)c1cc(=O)nc2sc(-c3cccs3)nn12`, which z-score is on record?
Its z-score is -0.0873.

`CCn1c(=O)cc(OCC(=O)NCCCN2CCC(C)CC2)c2ccccc21` was tested. Which z-score did it give?
The z-score was 0.709.

How did the z-score turn out when `CNC(=O)c1[nH]cnc1C(=O)Nc1ccccc1OC` was run?
The z-score was 0.94.

Which z-score does the source give for `O=S(=O)(c1ccc2c(c1)OCCO2)N1CCN(c2cccc(Cl)c2)CC1` here?
Its z-score is 0.401.

With `C=CCNC(=O)/C(=C/c1ccccc1OCC)NC(=O)c1ccccc1` as the compound, how does the z-score read?
The z-score was -0.0384.

For `CC(=O)Nc1ccc(S(=O)(=O)NC2(C(F)(F)F)NC(=O)N(C3CCCCC3)C2=O)cc1` (stereo not given), which z-score is on record?
Its z-score is -0.0965.

How did the z-score turn out when `Cc1cc2ccccc2c(=O)n1CC(=O)NCC(=O)N1CCN(c2cccc(Cl)c2)CC1` was run?
Its z-score is -0.598.

How did the z-score turn out when `CC(C)(C)c1ccc(OCC(=O)NNC(=S)NC(=O)c2ccccc2[N+](=O)[O-])c(Br)c1` was run?
The z-score was 0.0129.

How did the z-score turn out when `CCN(CC)S(=O)(=O)c1cc(OC)c(Cl)cc1Cl` was run?
Its z-score is 0.902.

How did the z-score turn out when `COC(=O)c1cccc(NC(=O)NC23CC4CC(CC(C4)C2)C3)c1` was run?
Its z-score is -0.16.

With `Cc1cccc(NC(=S)N2CCn3cccc3C2c2cccnc2)c1` (stereo not given) as the compound, how does the z-score read?
Its z-score is 0.448.

`CC(=O)Nc1ccnc(-c2cccnc2)n1` was tested. Which z-score did it give?
The z-score was -0.13.

For `COC(=O)c1sc(=S)n(-c2ccccc2)c1N`, which z-score is on record?
Its z-score is 0.461.

With `COc1cccc(-c2nnc(SC(C(=O)c3c[nH]c4ccccc34)c3ccccc3)n2C)c1` (stereo not given) as the compound, how does the z-score read?
Its z-score is -0.273.

Which z-score does the source give for `O=C1C=C(Nc2cccc(Cl)c2)CC(c2ccco2)C1` (stereo not given) here?
The z-score was 0.259.

How did the z-score turn out when `Cc1c(O)c2cccnc2[nH]c1=O` was run?
Its z-score is 0.271.

Which z-score does the source give for `CCCCC(=O)NCc1ccc2c(c1)cc(C)n2C` here?
Its z-score is -0.0318.

With `COc1ccc(CCN=C(N)NS(=O)(=O)c2ccc(OC)cc2)cc1` as the compound, how does the z-score read?
Its z-score is -0.241.

Which z-score does the source give for `O=C(NCCCN1CCOCC1)C1(c2ccccc2)CCCC1` here?
The z-score was -0.541.

`O=c1cc(O)n(-c2ccc(Cl)cc2)c(=S)[nH]1` was tested. Which z-score did it give?
The z-score was -0.295.

With `CCOC(=O)c1sc(NC(=S)NC(=O)CC(C)C)cc1C` as the compound, how does the z-score read?
Its z-score is 0.291.

With `O=C(Nc1cccc(F)c1)N1CCN(C/C=C/c2ccccc2)CC1` as the compound, how does the z-score read?
The z-score was -0.579.

For `Cc1ccccc1CSCCNC(=O)CSCc1ccc([N+](=O)[O-])cc1`, which z-score is on record?
Its z-score is -0.215.

For `Cc1nn(-c2ccccc2)c(N2CCCC2)c1/C=N/NC(=O)c1cc2ccccc2cc1O`, which z-score is on record?
Its z-score is -0.617.

`Cc1ccc(NC(=O)CN(C)CC(=O)Nc2c(C)cccc2C)c(Br)c1` was tested. Which z-score did it give?
Its z-score is 0.011.

Which z-score does the source give for `COC(c1ccccc1)c1c(-c2ccccc2)nn(C)c1Cl` (stereo not given) here?
The z-score was -0.346.

Which z-score does the source give for `CCCCOc1ccc(CNC(=S)N/N=C/c2ccc(OC)c(OC)c2)cc1` here?
The z-score was -0.0858.

How did the z-score turn out when `COC(=O)c1ccc(NC(=O)CSc2nc3cccnc3n2C)cc1` was run?
Its z-score is -0.0928.

For `N#Cc1c(NCCCO)nc(-c2ccco2)c2c1CCCC2`, which z-score is on record?
The z-score was 0.394.

How did the z-score turn out when `CCCCCC(=O)N1CC2(C)CN(C(=O)CCCCC)CC(C)(C1)C2=O` was run?
The z-score was 0.292.

With `COc1ccc(C2C(C(=O)c3sc(C)nc3C)=C(O)C(=O)N2CCN(C)C)cc1` (stereo not given) as the compound, how does the z-score read?
The z-score was 0.139.

With `COC(=O)CSc1ccc(-c2nc3ccc(C)cc3[nH]2)cn1` as the compound, how does the z-score read?
The z-score was 0.0297.

How did the z-score turn out when `CC1CN(C(=O)c2cccc(C(=O)N3CC(C)OC(C)C3)c2)CC(C)O1` (stereo not given) was run?
The z-score was -0.281.

How did the z-score turn out when `COC(=O)/C=C1\SC(=NC(=O)c2cccc(Cl)c2)NC1=O` was run?
The z-score was -0.119.

`O=C(Cn1c(C(F)(F)F)nc2ccccc21)c1ccc(Cl)cc1` was tested. Which z-score did it give?
Its z-score is -0.0833.

How did the z-score turn out when `FC(F)(F)c1nnc2ccc(N3CCCC3)nn12` was run?
Its z-score is -0.343.

`Clc1ccc2ncc(-c3nnnn3-c3ccccc3)c(-c3ccccc3)c2c1` was tested. Which z-score did it give?
The z-score was -0.259.

How did the z-score turn out when `CN(C)C(CNC(=O)c1ccc(S(=O)(=O)NCc2ccco2)cc1)c1ccccc1` (stereo not given) was run?
The z-score was 0.343.

With `Cc1ccc(N2CCN(C(=O)c3ccccc3F)CC2)c(C)c1` as the compound, how does the z-score read?
The z-score was -0.309.

With `O=C(Nc1ccccc1)c1nnsc1S(=O)c1ccc(Cl)cc1` (stereo not given) as the compound, how does the z-score read?
Its z-score is -0.317.

For `CCOc1ccc2ncc(S(=O)(=O)c3ccccc3)c(N3CCC4(CC3)OCCO4)c2c1`, which z-score is on record?
The z-score was -0.472.

How did the z-score turn out when `C/C(=N\NC(=O)c1c[nH]c2ccccc12)c1ccc(C)o1` was run?
Its z-score is -0.582.

With `O=[N+]([O-])c1cc(S(=O)(=O)N2CCCCC2)ccc1NCc1cccc(Cl)c1` as the compound, how does the z-score read?
The z-score was 0.119.

Which z-score does the source give for `COc1ccccc1CNC(=O)N[C@@H](Cc1ccccc1)C(=O)O` here?
The z-score was -0.154.

For `N#CC1=C(N)N=C(SCc2ccccc2)C(C(N)=O)C12CCCCC2` (stereo not given), which z-score is on record?
Its z-score is -0.119.

`N#Cc1c2n(c3c(=O)n(Cc4ccc(Cl)cc4)cnc13)CCCCC2` was tested. Which z-score did it give?
Its z-score is -0.369.

With `CCCCn1c(CCNC(=O)CC)nc2ccccc21` as the compound, how does the z-score read?
Its z-score is -0.38.

`O=C(OCc1ccccc1)c1cn(-c2ccccc2)nc1-c1ccncc1` was tested. Which z-score did it give?
Its z-score is -0.0669.

With `Cc1cc(C(C)(C)C)oc1C(=O)N(CC(=O)NC1CCCC1)Cc1ccc(F)cc1` as the compound, how does the z-score read?
Its z-score is 0.0113.

With `O=C(COC(=O)c1ccccc1Br)NCc1ccccc1` as the compound, how does the z-score read?
Its z-score is -0.203.

`COc1cccc2cc(C(=O)C3=C(O)C(=O)N(CCCN4CCOCC4)C3c3ccncc3)oc12` (stereo not given) was tested. Which z-score did it give?
The z-score was -0.186.

`Cc1ccc(-c2ccc(SCC(=O)N3CCCc4ccccc43)nn2)cc1` was tested. Which z-score did it give?
The z-score was -0.114.

With `Cc1[nH]nc(N2CCCCC2)c1[N+](=O)[O-]` as the compound, how does the z-score read?
The z-score was 0.239.
